# In patent US10392428B2, “GLP-1 derivatives and uses thereof” (Novo Nordisk A/S, priority 2014, dated 2019):
# At least one compound was matched to its structure with a doubt left. Non-standard residues stand in square brackets, D forms with d. Residues, ends and D or L forms follow the SMILES beside them. Groups on a side chain read outwards from the residue. *: point of attachment. X2 = O=C(O)CCCCCCCCCCCCCCCCCCC(=O)NC[C@H]1CC[C@H](C(=O)N[C@@H](CCC(=O)NCCCC[C@H](NC(=O)CC[C@H](NC(=O)[C@H]2CC[C@H](CNC(=O)CCCCCCCCCCCCCCCCCCC(=O)O)CC2)C(=O)O)C(=O)*)C(=O)O)CC1; Desaminohistidyl = O=C(CCc1c[nH]cn1)*; AEEA = NCCOCCOCC(=O)O; Aib = CC(C)(N)C(=O)O
# How the values were obtained:
# [1] = system: obese, diabetic mouse model (db/db mice); assay: Pharmacodynamic study in db/db mice: acute effect on blood glucose and body weight; type: in vivo; settings: for % change in blood glucose / % change in body weight: 48 h vs basal
# Method: The purpose of the study is to verify the acute effect of the GLP-1 derivatives on blood glucose (BG) and body weight (BW) in a diabetic setting.
# The GLP-1 derivatives of Examples 2-4 and 6-10 were tested in a single-dose study in an obese, diabetic mouse model (db/db mice) as described in the following.
# Six db/db mice per compound to be tested (from Taconic, Denmark), fed from birth with the diet NIH31 (NIH 31M Rodent Diet, commercially available from Taconic Farms, Inc., US, see www.taconic.com), were enrolled for the study at the age of approximately 10 weeks. At arrival to the animal facility the mice were given free access to standard chow (e.g. Altromin 1324, Brogaarden, Denmark) and tap water and kept at 24° C. After 1-2 weeks of acclimatisation, the basal blood glucose was assessed twice on two consecutive days (i.e. at 9 am). The mice were allocated to treatment groups based on matching blood glucose levels and body weights. The mice were used in experiments with a duration of 96 hours (Examples 1, 3-4, and 6-10) or up to 240 hours (Examples 2, 12, and 14), and were re-used for up to 2 times. After the last experiment the mice were euthanised.
# The GLP-1 derivative was dissolved in the vehicle, to a dosing concentration of 0.5-5 nmol/ml dependent on the respective dose. Animals were dosed once, at the start of the experiment, s.c. with a dose-volume of 6 ml/kg (i.e. 300 μl per 50 g mouse).
# On the day of dosing, blood glucose was assessed at time −½ h (8.30 am), the mice were weighed after this. The GLP-1 derivative was dosed at approximately 9 am (time 0). On the day of dosing, blood glucose was assessed at times 1, 2, 4 and 8 h (10 am, 11 am, 1 pm and 5 pm) after dosing.
# On the following days, the blood glucose was assessed at time 24 h, 48 h, 72 h, and 96 h (all Example compounds), and for the GLP-1 derivatives of Examples […] blood glucose was further assessed daily up to 240 h after dosing. On each day, the mice were weighed following blood glucose sampling.
# The mice were weighed individually on a digital weighing scale.
# Samples for the measurement of blood glucose were obtained from the tail tip capillary of conscious mice. Blood, 10 μl, was collected into heparinised capillaries and transferred to 500 μl glucose buffer (EKF system solution, Eppendorf, Germany). The glucose concentration was measured using the glucose oxidase method (glucose analyser Biosen 5040, EKF Diagnostic, GmbH, Germany). The samples were kept at room temperature for up to 1 h until analysis. If analysis had to be postponed, samples were kept at 4° C. for a maximum of 24 h.
# The data are presented as percent change in blood glucose or body weight measured at the 48 h time points. For example, the percent change in blood glucose level at 48 h for each individual is calculated as follows: [[(blood glucose level at 48 h)−(basal blood glucose level)]/(basal blood glucose level)]×100%], where basal blood glucose level refers to the level before the administration of any treatment−and vice versa for the body weight change. A negative value refers to a % reduction.
# The following results were obtained (averages of all individual determinations corresponding to the respective treatment): […]
# [2] = system: lean Sprague Dawley male rats; assay: Pharmacodynamic study in rats: acute effect on food intake and body weight; type: in vivo; settings: single s.c. dose 50 nmol/kg, 48 h vs baseline
structure (smiles),measurement,setting,value
"CC[C@H](C)[C@H](NC(=O)[C@H](Cc1ccccc1)NC(=O)[C@H](CCC(=O)O)NC(=O)[C@H](CCCNC(=N)N)NC(=O)[C@H](C)NC(=O)[C@H](C)NC(=O)[C@H](CCC(N)=O)NC(=O)[C@H](CCC(=O)O)NC(=O)[C@H](CCC(=O)O)NC(=O)[C@H](CC(C)C)NC(=O)[C@H](Cc1ccc(O)cc1)NC(=O)[C@H](CO)NC(=O)[C@H](CO)NC(=O)[C@@H](NC(=O)[C@H](CC(=O)O)NC(=O)[C@H](CO)NC(=O)[C@@H](NC(=O)[C@H](Cc1ccccc1)NC(=O)[C@@H](NC(=O)CNC(=O)[C@H](CCC(=O)O)NC(=O)C(C)(C)NC(=O)[C@@H](N)Cc1c[nH]cn1)[C@@H](C)O)[C@@H](C)O)C(C)C)C(=O)N[C@@H](C)C(=O)N[C@@H](Cc1c[nH]c2ccccc12)C(=O)N[C@@H](CC(C)C)C(=O)N[C@H](C(=O)N[C@@H](CCCNC(=N)N)C(=O)NCC(=O)N[C@@H](CCCNC(=N)N)C(=O)N[C@@H](CCCCNC(=O)COCCOCCNC(=O)COCCOCCNC(=O)COCCOCCNC(=O)COCCOCCNC(=O)[C@H](CCCCNC(=O)CC[C@H](NC(=O)[C@H]1CC[C@H](CNC(=O)CCCCCCCCCCCCCCCCCCC(=O)O)CC1)C(=O)O)NC(=O)CC[C@H](NC(=O)[C@H]1CC[C@H](CNC(=O)CCCCCCCCCCCCCCCCCCC(=O)O)CC1)C(=O)O)C(=O)O)C(C)C [Example 8, N{Epsilon-37}-[2-[2-[2-[[2-[2-[2-[[2-[2-[2-[[2-[2-[2-[[(2S)-2,6-bis[[(4S)-4-carboxy-4-[[4-[(19-carboxynonadecanoylamino)methyl]cyclohexanecarbonyl]amino]butanoyl]amino]hexanoyl]amino]ethoxy]ethoxy]acetyl]amino]ethoxy]ethoxy]acetyl]amino]ethoxy]ethoxy]acetyl]amino]ethoxy]ethoxy]acetyl]-[Aib8,Glu22,Arg26,Arg34,Lys37]-GLP-1-(7-37)-peptide]",% change in blood glucose,[1]; single s.c. dose 10 nmol/kg,−46%
same,% change in body weight,[1]; single s.c. dose 10 nmol/kg,−5%
same,% change in body weight,[2],−1%
same,% change in food intake,[2],−19%
"CC[C@H](C)[C@H](NC(=O)[C@H](Cc1ccccc1)NC(=O)[C@H](CCC(=O)O)NC(=O)[C@H](CCCNC(=N)N)NC(=O)[C@H](C)NC(=O)[C@H](C)NC(=O)[C@H](CCC(N)=O)NC(=O)[C@H](CCC(=O)O)NC(=O)[C@H](CCC(=O)O)NC(=O)[C@H](CC(C)C)NC(=O)[C@H](Cc1ccc(O)cc1)NC(=O)[C@H](CO)NC(=O)[C@H](CO)NC(=O)[C@@H](NC(=O)[C@H](CC(=O)O)NC(=O)[C@H](CO)NC(=O)[C@@H](NC(=O)[C@H](Cc1ccccc1)NC(=O)[C@@H](NC(=O)CNC(=O)[C@H](CCC(=O)O)NC(=O)C(C)(C)NC(=O)CCc1cnc[nH]1)[C@@H](C)O)[C@@H](C)O)C(C)C)C(=O)N[C@@H](C)C(=O)N[C@@H](Cc1c[nH]c2ccccc12)C(=O)N[C@@H](CC(C)C)C(=O)N[C@H](C(=O)N[C@@H](CCCNC(=N)N)C(=O)NCC(=O)N[C@@H](CCCNC(=N)N)C(=O)NCC(=O)NCC(=O)N[C@@H](CCCCNC(=O)COCCOCCNC(=O)COCCOCCNC(=O)COCCOCCNC(=O)COCCOCCNC(=O)[C@H](CCCCNC(=O)CC[C@H](NC(=O)[C@H]1CC[C@H](CNC(=O)CCCCCCCCCCCCCCCCCCC(=O)O)CC1)C(=O)O)NC(=O)CC[C@H](NC(=O)[C@H]1CC[C@H](CNC(=O)CCCCCCCCCCCCCCCCCCC(=O)O)CC1)C(=O)O)C(=O)O)C(C)C [Example 6, [Imp7,Aib8,Glu22,Arg26,Arg34]-GLP-1-(7-37)-peptidyl-Gly-N{Epsilon}[2-[2-[2-[[2-[2-[2-[[2-[2-[2-[[2-[2-[2-[[(2S)-2,6-bis[[(4S)-4-carboxy-4-[[4-[(19-carboxynonadecanoylamino)methyl]cyclohexanecarbonyl]amino]butanoyl]amino]hexanoyl]amino]ethoxy]ethoxy]acetyl]amino]ethoxy]ethoxy]acetyl]amino]ethoxy]ethoxy]acetyl]amino]ethoxy]ethoxy]acetyl]Lys] (Desaminohistidyl-[Aib]EGTFTSDVSSYLEEQAAREFIAWLVRGRGGK([AEEA-AEEA-AEEA-AEEA-X2])-OH; C-terminus assumed)",% change in blood glucose,[1]; single s.c. dose 10 nmol/kg,−21%
same,% change in body weight,[1]; single s.c. dose 10 nmol/kg,−2%
"CC[C@H](C)[C@H](NC(=O)[C@H](Cc1ccccc1)NC(=O)[C@H](CCC(=O)O)NC(=O)[C@H](CCCNC(=N)N)NC(=O)[C@H](C)NC(=O)[C@H](C)NC(=O)[C@H](CCC(N)=O)NC(=O)[C@H](CCC(=O)O)NC(=O)[C@H](CCC(=O)O)NC(=O)[C@H](CC(C)C)NC(=O)[C@H](Cc1ccc(O)cc1)NC(=O)[C@H](CO)NC(=O)[C@H](CO)NC(=O)[C@@H](NC(=O)[C@H](CC(=O)O)NC(=O)[C@H](CO)NC(=O)[C@@H](NC(=O)[C@H](Cc1ccccc1)NC(=O)[C@@H](NC(=O)CNC(=O)[C@H](CCC(=O)O)NC(=O)C(C)(C)NC(=O)[C@@H](N)Cc1c[nH]cn1)[C@@H](C)O)[C@@H](C)O)C(C)C)C(=O)N[C@@H](C)C(=O)N[C@@H](Cc1c[nH]c2ccccc12)C(=O)N[C@@H](CC(C)C)C(=O)N[C@H](C(=O)N[C@@H](CCCNC(=N)N)C(=O)NCC(=O)N[C@@H](CCCNC(=N)N)C(=O)N[C@@H](CCCCNC(=O)COCCOCCNC(=O)[C@H](CCCCNC(=O)COCCOCCNC(=O)COCCOCCNC(=O)CC[C@H](NC(=O)[C@H]1CC[C@H](CNC(=O)CCCCCCCCCCCCCCCCCCC(=O)O)CC1)C(=O)O)NC(=O)COCCOCCNC(=O)COCCOCCNC(=O)CC[C@H](NC(=O)[C@H]1CC[C@H](CNC(=O)CCCCCCCCCCCCCCCCCCC(=O)O)CC1)C(=O)O)C(=O)O)C(C)C [Example 1, N{Epsilon-37}-[2-[2-[2-[[(2S)-2,6-bis[[2-[2-[2-[[2-[2-[2-[[(4S)-4-carboxy-4-[[4-[(19-carboxynonadecanoylamino)methyl]cyclohexanecarbonyl]amino]butanoyl]amino]ethoxy]ethoxy]acetyl]amino]ethoxy]ethoxy]acetyl]amino]hexanoyl]amino]ethoxy]ethoxy]acetyl]-[Aib8,Glu22,Arg26,Arg34,Lys37]-GLP-1-(7-37)-peptide]",effect on BG,"[1]; after 48 h, single s.c. injection of either 3, 10 or 30 nmol/kg",not as pronounced
same,% change in blood glucose,[1]; single s.c. dose 3 nmol/kg,−7%
same,% change in body weight,[1]; single s.c. dose 3 nmol/kg,−2%
"CC[C@H](C)[C@H](NC(=O)[C@H](Cc1ccccc1)NC(=O)[C@H](CCC(=O)O)NC(=O)[C@H](CCCNC(=N)N)NC(=O)[C@H](C)NC(=O)[C@H](C)NC(=O)[C@H](CCC(N)=O)NC(=O)[C@H](CCC(=O)O)NC(=O)[C@H](CCC(=O)O)NC(=O)[C@H](CC(C)C)NC(=O)[C@H](Cc1ccc(O)cc1)NC(=O)[C@H](CO)NC(=O)[C@H](CO)NC(=O)[C@@H](NC(=O)[C@H](CC(=O)O)NC(=O)[C@H](CO)NC(=O)[C@@H](NC(=O)[C@H](Cc1ccccc1)NC(=O)[C@@H](NC(=O)CNC(=O)[C@H](CCC(=O)O)NC(=O)C(C)(C)NC(=O)[C@@H](N)Cc1c[nH]cn1)[C@@H](C)O)[C@@H](C)O)C(C)C)C(=O)N[C@@H](C)C(=O)N[C@@H](Cc1c[nH]c2ccccc12)C(=O)N[C@@H](CC(C)C)C(=O)N[C@H](C(=O)N[C@@H](CCCNC(=N)N)C(=O)NCC(=O)N[C@@H](CCCNC(=N)N)C(=O)N[C@@H](CCCCNC(=O)CCOCCOCCOCCOCCOCCOCCOCCOCCOCCOCCOCCOCCNC(=O)[C@H](CCCCNC(=O)CC[C@H](NC(=O)[C@H]1CC[C@H](CNC(=O)CCCCCCCCCCCCCCCCCCC(=O)O)CC1)C(=O)O)NC(=O)CC[C@H](NC(=O)[C@H]1CC[C@H](CNC(=O)CCCCCCCCCCCCCCCCCCC(=O)O)CC1)C(=O)O)C(=O)O)C(C)C [Example 4, N{Epsilon-37}-3-[2-[2-[2-[2-[2-[2-[2-[2-[2-[2-[2-[2-[[(2S)-2,6-bis[[(4S)-4-carboxy-4-[[4-[(19-carboxynonadecanoylamino)methyl]cyclohexanecarbonyl]amino]butanoyl]amino]hexanoyl]amino]ethoxy]ethoxy]ethoxy]ethoxy]ethoxy]ethoxy]ethoxy]ethoxy]ethoxy]ethoxy]ethoxy]ethoxy]propanoyl-[Aib8,Glu22,Arg26,Arg34,Lys37]-GLP-1-(7-37)-peptide]",% change in blood glucose,[1]; single s.c. dose 10 nmol/kg,−42%
same,% change in body weight,[1]; single s.c. dose 10 nmol/kg,−5%
